Results taken from the supplement of paper PMC5499739.
In all, about 16,000 sequences were measured (“Z-score”: median about -0.37, highest 2% from about 3.1 on). Some of the results follow.

Test system: RBM10 RRM1-ZnF-RRM2 (GST-tagged construct)
Experiment: RNAcompete 7-mer binding Z-score; higher = stronger binding preference
Method in brief: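 Each heptamer motif was given a one-sided Z-score for enrichment across the probes that contained it. GST-tagged RBM10 constructs (20 pmol) were combined with 1.5 nmol of a designed pool of 241 399 RNAs of up to 41 nt, transcribed from microarray-derived DNA templates. Binding took place in 1 ml Hepes pH 7.8 buffer containing KCl, NaCl, glycerol, DTT, BSA and glutathione Sepharose beads for 30 min at 4°C. After four 2-min washes at 4°C, bound RNA was identified by microarray hybridisation.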

| Sequence | RNAcompete 7-mer binding Z-score |
| --- | --- |
| AAGAAGU | 0.818 |
| AGGACCG | 0.166 |
| UCACGAC | -0.573 |
| ACAACUA | -0.3 |
| GUUUUAG | -0.067 |
| UUCCCAC | -0.639 |
| GCGGUGU | 0.96 |
| AAGACCU | -0.726 |
| GGGACAA | 2.85 |
| AGAGUAC | -0.256 |
| UGAACUU | -0.581 |
| CUAUCAA | -0.588 |
| CAACGCG | -0.169 |
| ACGGGAG | 2.63 |
| ACUAGGG | 2.08 |
| CGCUGUU | -0.89 |
| UGUGAAU | 0.00216 |
| UUCAGUU | -0.566 |
| UUUUCCA | -0.581 |
| AUUGGCG | 1.47 |
| GCCUGGU | -0.398 |
| UACAUUC | -0.861 |
| CAGCCCU | -0.803 |

| Sequence | RNAcompete 7-mer binding Z-score |
| --- | --- |
| AAAAGGC | 1.4 |
| AGUGUUA | -0.0306 |
| GGAUAUG | 2.41 |
| GGGUGUA | 3.09 |
| AGGAUGU | 0.964 |
| CGGAGAA | 1.2 |
| AGACGAC | -0.468 |
| CCGGAUG | 0.213 |
| GAGUUAU | 0.0969 |
| AUCGUGU | -0.351 |
| CCCACGU | -0.595 |
| UGUUCGC | -0.785 |
| AGCAAUU | -0.526 |
| CACACGU | -0.482 |
| AACGCUC | -0.85 |
| AGCAGAG | 1.55 |
| UUUUGGU | -0.0161 |
| GGUUCGC | -0.125 |
| UAGUGCC | -0.351 |
| GAUAGCU | -0.118 |
| AUAUCCA | -0.53 |
| AUAGGCG | 1.16 |
| CAAACUU | -0.781 |

| Sequence | RNAcompete 7-mer binding Z-score |
| --- | --- |
| UAUCUGA | -0.712 |
| GGCUAUG | 0.476 |
| CACUAAU | -0.73 |
| CAUUGUC | -0.708 |
| AAGUGUG | 0.771 |
| UACUCUU | -0.854 |
| GUGAUGA | 0.727 |
| GGUAUGU | 1.33 |
| CUCCUUU | -0.843 |
| GUUACCC | -0.413 |
| CGUAUUG | -0.195 |
| GGUGGAC | 2.45 |
| UGCCAUA | -0.69 |
| AAUAGAA | 0.68 |
| UUAGUUA | -0.329 |
| CCGAUAG | -0.522 |
| CGCAAUG | -0.169 |
| UCCAUUU | -0.872 |
| CUCAAGC | -0.763 |
| CAUAGAC | -0.646 |
| AGCGGAA | 2.02 |
| GGUCUAA | -0.0598 |
| CACCUUC | -0.854 |

| Sequence | RNAcompete 7-mer binding Z-score |
| --- | --- |
| CGGGAUC | 0.774 |
| ACUAGUG | -0.027 |
| UUCGGAA | 0.0349 |
| GCGCACA | -0.38 |
| UCACAGA | -0.242 |
| GCAUCCC | -0.326 |
| CCAAGGG | 1.05 |
| CAACUGA | -0.497 |
| AUCCGAC | -0.635 |
| CUAGGCG | -0.00877 |
| UUCCUAA | -0.704 |
| UAAAGUU | -0.355 |
| UAUGUUC | -0.61 |
| CUAGCCG | -0.77 |
| GUAGAUG | 1.67 |
| UGGCGCU | 0.075 |
| UUUCCGU | -0.646 |
| UACAGUG | 0.25 |
| CAGGCUG | 0.417 |
| GCUUAUC | -0.69 |
| AUUCUUU | -0.683 |
| UUAUCAU | -0.668 |
| AACUCAU | -0.73 |

| Sequence | RNAcompete 7-mer binding Z-score |
| --- | --- |
| CCUGGCA | -0.508 |
| UACCGGG | 0.658 |
| GAAUUAG | 0.723 |
| UAGUGUG | 0.603 |
| GAGGGGC | 2.44 |
| CUAAGUU | -0.439 |
| ACUUAGA | -0.53 |
| CAGCUAA | -0.468 |
| CGAAGUC | -0.635 |
| UUUUCCU | -0.81 |
| GAGCUGU | -0.227 |
| GUAGCAG | 0.931 |
| AUCACGA | -0.406 |
| CGACGGC | 0.126 |
| GCCCGUG | -0.373 |
| AUAAGCU | -0.391 |
| CCAUUAU | -0.905 |
| UAUGAGC | -0.154 |
| GAAACCG | -0.122 |
| AGGCCUC | -0.828 |
| UACGUUG | -0.187 |
| UAGGCCU | -0.595 |
| CUAAGAU | -0.453 |

| Sequence | RNAcompete 7-mer binding Z-score |
| --- | --- |
| GGAGGUU | 2.23 |
| GCCCUUA | -0.766 |
| UAAUAAG | 0.0313 |
| UUCUCUA | -0.806 |
| GUAUCAG | 0.294 |
| GUAAUAG | 0.508 |
| UAAGUCC | -0.719 |
| UAUUAUC | -0.537 |
| UUCUACC | -0.883 |
| UUGGAAU | 0.57 |
| UCACGGA | 0.00216 |
| CGCGCGU | -0.362 |
| AUUUCUU | -0.788 |
| AAGGAUU | 1.71 |
| AUGGUGC | 0.789 |
| ACUUCUA | -0.999 |
| UUCUAGU | -0.551 |
| UGUUCUG | -0.704 |
| GUCUAGC | -0.581 |
| GAUGUUU | -0.296 |
| GUUCGAU | -0.519 |
| UGGUUCU | -0.431 |
| AGGCCAA | -0.202 |

| Sequence | RNAcompete 7-mer binding Z-score |
| --- | --- |
| UGUCUGA | -0.65 |
| UAUGUAU | -0.34 |
| CUUAAUC | -0.905 |
| CAUUCGU | -0.694 |
| CCACGGU | -0.355 |
| UUGUCGU | -0.551 |
| UGUUCUU | -0.792 |
| GCUAUGG | 0.709 |
| GCGCUAG | -0.0816 |
| GGGAGGU | 3.39 |
| UAAUUCA | -0.409 |
| GACUGAC | -0.409 |
| CGCUCCG | -0.777 |
| UUGUUCG | -0.486 |
| ACCCGCC | -0.89 |
| UUCACCC | -0.843 |
| CGAACAU | -0.428 |
| CUUUUAC | -0.785 |
| UGGCUAU | -0.00148 |
| CAUCUGU | -0.854 |
| CUGGCAA | -0.435 |
| UCUCUUG | -0.679 |
| GACUAGA | -0.122 |

| Sequence | RNAcompete 7-mer binding Z-score |
| --- | --- |
| CUGGGAA | 1.36 |
| UCUUACA | -0.723 |
| GCGCUCU | -0.639 |
| CUGCCUA | -0.879 |
| CGAGACA | -0.118 |
| GCCACUU | -0.992 |
| CAGGCGG | 1.96 |
| CCCUAUG | -0.836 |
| UAUUCCC | -0.795 |
| AUCCAUA | -0.752 |
| ACACUUG | -0.602 |
| UGGGAUA | 2.85 |
| ACCGAAU | -0.653 |
| CCGCUGA | -0.723 |
| AACGCAG | 0.0277 |
| AAGUAGG | 2.79 |
| AAAAUAU | -0.333 |
| CCGCACG | -0.61 |
| UUGCAAG | -0.213 |
| UGUACUU | -0.715 |
| UCCAGCG | -0.428 |
| UAAGAUU | -0.413 |
